Laboratory results: PMC12040169 (PLOS Biology, 2025)
The list shows a part of the results.

Test system: T1, C. trachomatis L2/434/Bu expressing GFP (CTL2-GFP)
T1 construct: L2/434/Bu GFP intracellular growth in HeLa cells
Parameters: species or system HeLa; C. trachomatis total inclusion area by high-content imaging, normalised to DMSO
Conditions: total inclusion area; 28.5 h, 10 µM; inhibitor
Summary of the method: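 High-content images of fixed, Hoechst-stained infected cultures supply inclusion area and count (growth) plus nuclei number (viability), complementing bulk GFP/resorufin fluorescence. MIC determination is unchanged from the primary assay.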

| SMILES | % of control remaining |
| --- | --- |
| CCc1n[nH]c(C(=O)N2CCc3ncc(Cl)cc3C2)c1C [CBK284856] | 113.851 |
| CC(Oc1ccc(Cl)cc1)C(=O)Nc1ncccn1 (stereo not drawn) [CBK288206] | 87.1478 |
| O=C(CC1Nc2ccccc2NC1=O)Nc1cccc(C(=O)O)c1 (stereo not drawn) [CBK263155] | 102.051 |
| O=C(O)C1CCCN(C(=O)NCCOc2ccccc2)C1 (stereo not drawn) [CBK161366] | 83.2659 |
| COc1cc2c(cc1NC(=O)C/C(C)=N/NC(=O)c1ccoc1C)oc1ccccc12 [CBK262953] | 87.1556 |
| NS(=O)(=O)c1ccc(CCNC(=O)c2ccc3c(c2)OCCO3)cc1 [CBK268128] | 74.1042 |
| Cc1nc2c(c(=O)c3ccccc3n2C)c(=O)n1Cc1ccco1 [CBK287776] | 96.133 |
| COC(=O)c1sc2ncccc2c1NS(=O)(=O)c1ccc(C(F)(F)F)cc1[N+](=O)[O-] [CBK049969] | 87.5676 |
| NC(=O)COc1ccc(CNC(=O)CN2CCc3ccccc32)cc1 [CBK306330] | 77.6514 |
| O=C(Cc1ccccc1F)NCCn1nc2c(cc1=O)CCCCC2 [CBK284519] | 40.5641 |
| Clc1ccc(CN2CCC(Oc3cncc(OCc4cccnc4)n3)C2)cc1 (stereo not drawn) [CBK084451] | 15.5359 |
| O=C(NCC(O)COc1ccccc1)c1cnn2c(-c3ccccc3)ccnc12 (stereo not drawn) [CBK298320] | 76.4942 |
| COc1cccc(CNc2ccc(C3c4ccsc4CCN3C(C)=O)cc2)c1 (stereo not drawn) [CBK286443] | 106.352 |
| CCn1cc(CN2CCCCCC2c2cc(C)on2)c(C)n1 (stereo not drawn) [CBK282140] | 96.8411 |
| O=C(c1ccc(S(=O)(=O)c2ccc(F)cc2)c([N+](=O)[O-])c1)N1CCCCCC1 [CBK294453] | 63.918 |
| CC(C(=O)NCCC1=CCCCC1)N1CCOC(Cn2cccn2)C1 (stereo not drawn) [CBK305319] | 33.6144 |
| CCCn1c(SC(C)C(=O)N2CCOCC2)nc2ccc(Br)cc2c1=O (stereo not drawn) [CBK305020] | 96.3566 |
| COCc1cc2n[nH]c(=O)n2c(-c2ccccc2)n1 [CBK288507] | 87.8237 |
| O=C(Nc1ccncc1)c1snnc1-c1ccccc1 [CBK287982] | 109.138 |
| Cn1c([C@H]2CCN(C(=O)c3cnccn3)C2)nc2ccccc21 [CBK289416] | 92.2792 |
| CCNS(=O)(=O)c1ccc(Cn2nc(NC(=O)C3COc4ccccc4O3)c3ccccc32)cc1 (stereo not drawn) [CBK061613] | 79.9522 |

| SMILES | % of control remaining |
| --- | --- |
| CCC(C)(Sc1nc(C)ccc1C#N)C(=O)O (stereo not drawn) [CBK287098] | 99.8976 |
| CCN(CC(=O)NC(C)(C)C)Cc1nc(-c2cccc(Br)c2)no1 [CBK304230] | 34.4913 |
| CN(CC(=O)O)C(=O)OCc1ccccc1 [CBK012752] | 95.649 |
| O=C(Nc1sc2c(c1C(=O)NCc1ccco1)CCCC2)c1sc2ccccc2c1Cl [CBK265086] | 108.59 |
| COc1cc(-c2cnc(N)c(NCC(C)(C)CO)n2)cc(OC)c1OC [CBK063523] | 95.0569 |
| CCCCC(c1cccnc1)N(C)C(=O)CCc1ccnn1C (stereo not drawn) [CBK306664] | 98.5774 |
| COc1cc(C(=O)Oc2cccc(Nc3ncnc4ccccc34)c2)cc(OC)c1OC [CBK264908] | 100.986 |
| C[C@H](Nc1cncc(-c2cccs2)n1)c1ccccc1 [CBK065719] | 97.0873 |
| CCc1c(C)nc(C)nc1N1CCCn2nc(C(O)C3CC3)cc2C1 (stereo not drawn) [CBK306778] | 56.9113 |
| COc1cnc(-c2cnn(C)c2)c(NC(=O)C2CC2)n1 [CBK145328] | 95.2382 |
| Cc1cc(CS(=O)(=O)N2CCOCC2c2cccc(F)c2)no1 (stereo not drawn) [CBK304093] | 10.1767 |
| O=C(Nc1cc(Cl)cc(Cl)c1)c1ccc([N+](=O)[O-])s1 [CBK066840] | 71.2205 |
| COc1ccc2c(c1)C1(CC(=O)N(CC(=O)N(C)OC)C1=O)C(=O)N2CCCCOc1ccccc1 (stereo not drawn) [CBK076032] | 106.589 |
| O=C(Nc1nnc(C2=COCCO2)o1)c1cc(Cl)cc(Cl)c1 [CBK287418] | 111.209 |
| COc1ccc(-c2c(C)nc(N)nc2-c2ccc(OC)cc2O)cc1 [CBK288186] | 59.4358 |
| CSc1ncc(Cl)c(C(=O)Nc2nnc(SC/C=C/c3ccccc3)s2)n1 [CBK268691] | 133.366 |
| Cc1noc(C)c1C(=O)N1C2CCC1CC(c1ccc(F)cc1)C2 (stereo not drawn) [CBK283738] | 81.9266 |
| O=C(CCc1cccnc1)NC1CCCC1 [CBK200239] | 93.3108 |
| COc1cccc(C2C(C(=O)c3ccc(Br)cc3)=C(O)C(=O)N2CCCN(C)C)c1 (stereo not drawn) [CBK264921] | 105.466 |
| CC(C)c1nnc(C2(c3ccc(Br)cc3)CCOCC2)o1 [CBK306230] | 137.393 |
| COc1ccc(C(C)C)cc1-c1cnc2[nH]c(=O)n(C3CC3)c2n1 [CBK064915] | 107.29 |

| SMILES | % of control remaining |
| --- | --- |
| CCN(CC)C(=O)Cn1nc2c(C)cc3cc(C)ccc3n2c1=O [CBK283871] | 106.311 |
| Cc1nnc(N/N=C/c2ccc(OC3CCCC3)cc2)nc1O [CBK058025] | 73.7845 |
| Cc1ccc(NC(=O)c2cc(NC(=O)C3CC=CCC3C(=O)O)ccc2N2CCOCC2)cc1Cl (stereo not drawn) [CBK265323] | 94.8985 |
| Cc1ccc(C)c(-c2nc(-c3cccnc3)no2)c1 [CBK288018] | 67.5336 |
| Cn1nc(C2CCN(C(=O)C3CCCCC3)CC2)c2cccnc21 [CBK284897] | 92.2222 |
| Cc1nn(CC(=O)N(C)CCCc2nccn2C)c(=O)c2ccccc12 [CBK307087] | 115.99 |
| CCOC(=O)CC(C)NS(=O)(=O)c1ccc(OC(F)(F)F)cc1 (stereo not drawn) [CBK044954] | 137.396 |
| COc1ccc(NCc2cc(=O)oc3cc4c(cc23)CCC4)cn1 [CBK235362] | 95.0351 |
| COC(=O)[C@@H]1Cc2ncn(C(C)C)c2CN1C(=O)c1ccccc1 [CBK288987] | 104.733 |
| Cc1nn(C)c(C)c1CCC(=O)NCC1CN(c2ccccc2)CCO1 (stereo not drawn) [CBK307199] | 49.2868 |
| Cc1cc(COc2ccnc(N3CCCN(CC4CC4)CC3)n2)no1 [CBK084073] | 80.1738 |
| C=CCNC(=O)CN1CCC(c2ccc(OC)cc2)CC1 [CBK283560] | 64.1954 |
| O=C(N[C@H]1CO[C@H]2[C@@H]1OC[C@@H]2n1cc(-c2ccccn2)nn1)c1ccc(C(F)(F)F)cc1 [CBK289507] | 93.0829 |
| CCCC/C=C/c1ccc(Nc2ccc(N3CCOCC3)cc2)nc1 [CBK036886] | 86.7182 |
| C[C@]12CN(Cc3ccccc3)C[C@H]1NC(=O)c1ccccc1C2=O [CBK284703] | 109.357 |
| CN(C)c1ccc(-c2nccnc2NCC(O)COc2ccccc2)cc1 (stereo not drawn) [CBK036928] | 89.844 |
| COc1ccc(C)cc1NC(=O)CN(c1ccccc1)S(=O)(=O)c1ccc(F)cc1 [CBK268223] | 88.1437 |
| CCc1noc(C)c1C(=O)NCCN1CC(C)CC(C)C1 (stereo not drawn) [CBK282081] | 84.6386 |
| CCOc1cc(C(c2c[nH]c3ccccc23)c2c[nH]c3ccccc23)ccc1OCC(=O)O [CBK264450] | 108.552 |
| Cc1cc(C)nc(Nc2n[nH]c(-c3cccc4ccccc34)n2)n1 [CBK266451] | 142.778 |
| O=C(c1ccc2ccccc2n1)N1CCc2ccccc21 [CBK200404] | 103.087 |

| SMILES | % of control remaining |
| --- | --- |
| Cc1ccc2cn[nH]c2c1 [CBK016109] | 64.9305 |
| CCc1nnc(NS(=O)(=O)c2ccc(NCc3cc(Cl)cc(Cl)c3O)cc2)s1 [CBK126494] | 103.015 |
| Cc1ccn2cc(C(=O)NCCSc3nccn3C)nc2c1 [CBK281417] | 76.5067 |
| COc1ccccc1-c1cnc(N)c(N[C@@H](C)c2ccccc2)n1 [CBK063721] | 110.84 |
| CNS(=O)(=O)c1cccc(C(=O)N(C)Cc2ccsc2)c1 [CBK303993] | 72.0781 |
| CCC1CCc2c(sc(NC(=O)c3cnccn3)c2C(N)=O)C1 (stereo not drawn) [CBK262649] | 101.472 |
| CCOC(=O)c1cnc2c(C)cc(C)cc2c1NCCN1CCOCC1 [CBK264757] | 102.885 |
| COCCn1c(SC)nc2sc(-c3ccccc3)cc2c1=O [CBK295200] | 114.339 |
| O=S(=O)(c1ccc(F)c(F)c1F)n1ccc2c(N3CCNCC3)nccc21 [CBK059066C] | 104.218 |
| Cc1ccc(C23CC4CC(CC(C(=O)NC(C(=O)O)C(C)C)(C4)C2)C3)cc1 (stereo not drawn) [CBK264924] | 118.137 |
| C=CCSc1nnc(-c2ccc(OCCC)cc2)[nH]1 [CBK267323] | 85.8079 |
| CCN(Cc1ccncc1)C(=O)Nc1cccnc1 [CBK145053] | 106.15 |
| CCn1cc(C(=O)O)c(=O)c2cnc(N3CCN(C(=S)NC(=O)c4c(-c5ccccc5)noc4C)CC3)nc21 [CBK267491] | 107.158 |
| COc1ccc(-c2cncc(N[C@@H](CO)C(C)C)n2)cc1 [CBK037941] | 118.029 |
| O=C(c1ccc2nc[nH]c2c1)N1CCC2(CCN(Cc3ccccc3)C2)C1 (stereo not drawn) [CBK136862] | 113.217 |
| OCCN1CCN(c2cc(Nc3ccc(Oc4ccccc4)cc3)nc3ccnn23)CC1 [CBK037185] | 141.879 |
| O=C1COc2ccc(S(=O)(=O)NCc3ccccc3)cc2N1 [CBK270156] | 98.0956 |
| Cc1nc(CN2CCC3(CC2)CN(C(=O)CO)c2ccccc23)cs1 [CBK131523] | 99.9172 |
